The campaign covered roughly 200,000 compounds. About 4,500 (2.2%) were called active. The shares of active, inactive and inconclusive entries below differ from those in the screen. The call rests on the fitted dose curve; in most records, active means well fitted inhibition curve with a large enough effect; inconclusive means small, poorly fitted or top-dose-only effect, or effect the other way; inactive means flat fitted curve, though single readings scatter. Potencies of inconclusive entries are doubtful fits and often do not repeat.
Molecular target: Cruzipain (Trypanosoma cruzi) (UniProt P25779)
Sequence of UniProt P25779 (P25779 whole entry, looked up): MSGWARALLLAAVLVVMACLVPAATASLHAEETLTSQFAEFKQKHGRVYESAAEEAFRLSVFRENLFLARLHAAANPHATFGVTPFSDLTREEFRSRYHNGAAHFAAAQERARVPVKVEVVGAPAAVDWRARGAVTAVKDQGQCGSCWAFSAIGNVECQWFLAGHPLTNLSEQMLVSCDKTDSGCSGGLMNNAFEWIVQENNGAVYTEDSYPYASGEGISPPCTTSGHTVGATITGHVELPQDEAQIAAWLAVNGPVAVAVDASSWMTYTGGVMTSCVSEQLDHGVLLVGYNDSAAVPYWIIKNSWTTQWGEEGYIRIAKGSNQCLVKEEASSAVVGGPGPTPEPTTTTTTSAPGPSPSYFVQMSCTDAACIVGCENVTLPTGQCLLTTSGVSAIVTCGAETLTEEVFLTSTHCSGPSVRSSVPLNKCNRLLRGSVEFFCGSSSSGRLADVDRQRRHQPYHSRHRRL
Test: qHTS Assay for Promiscuous and Specific Inhibitors of Cruzain (without detergent); further: nearly all actives have a fitted effect of over 40% in size;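 on max response, negative = inhibition: plate controls were enzyme without inhibitor for no effect and buffer without enzyme for full effect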
Conditions: purified cruzain, Z-FR-AMC fluorescence, no detergent
Outline: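 Purified cruzain at 1.5 nM, pre-incubated 15 min with compound at room temperature in 100 mM sodium acetate pH 5.5, 5 mM DTT, 0.00005% Triton X-100. Reaction started with 2 uM Z-FR-AMC; AMC fluorescence increase over 60 s gives rate.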
Potency means the concentration at half of the fitted maximal effect; tags describe the fitted curve by direction and shape.

SMILES	Potency	max response, negative = inhibition
Cc1cccc(S(=O)(=O)c2c(N)n(/N=C/c3ccccc3)c3nc4ccccc4nc23)c1	active: 3.98 µM	
O=C(NCCc1nc2ccccc2n1CCCOc1ccc(Cl)cc1)C1CCCCC1		inactive: 15.9%
Fc1ccc(Cn2c(-c3cccc(Br)c3)nc3ccccc32)cc1		inactive: 8.93%
COc1ccc(Cn2c(SCc3ccc(C(=O)NCc4cccs4)cc3)nc3cccnc32)cc1	inconclusive: 39.8 µM [inhibitor, single point]	
COc1ccc(-c2cc(-c3ccccc3)c(C#N)c(S(C)(=O)=O)n2)cc1	inconclusive: 39.8 µM [inhibitor, single point]	
O=c1[nH]c(=O)n(Cc2ccco2)c2c1C(C(F)(F)F)(C(F)(F)F)N=C(c1ccc(F)cc1)N2	inconclusive: 39.8 µM [inhibitor, single point]	
CCc1cccc(C)c1NC(=O)CSc1nc2ccccc2nc1N1CCOCC1	inconclusive: 25.1 µM [activator, single point]	
COc1ccc(-n2ncc3c(SCC(=O)N4CCN(c5ccccc5OC)CC4)ncnc32)cc1	inconclusive: 39.8 µM [activator, single point]	
COc1ccc2c(c1OC)C(=O)N(c1cccc(C(F)(F)F)c1)C2	inconclusive: 25.1 µM [activator, single point]	
FC(F)(F)C12CC(c3ccccc3)=NCCN1CCN2 (stereo unspecified)	inconclusive: 1 µM [inhibitor, full curve, poor fit]	
Fc1ccccc1Nc1nc2ccccc2n2nnnc12	active: 25.1 µM	
Cc1nc(NC(=O)c2ccccc2)sc1-c1csc(Nc2cccc(Cl)c2)n1	active: 10 µM	
COc1ccc(N=C2NN=C(c3c(C)[nH]c4ccccc34)CS2)cc1	inconclusive: 39.8 µM [inhibitor, single point]	
Cc1ccc(S(=O)(=O)N2CC3(C)CN(S(=O)(=O)c4ccc(C)cc4)CC(C)(C2)C3)cc1	inconclusive: 39.8 µM [inhibitor, single point]	
Cc1cc(NC(=O)N(C)CCc2c(C)nn(C)c2C)ccc1Br		inactive: 0.843%
N#C/C(=C(/O)COc1cccc2ccccc12)c1nc2ccccc2[nH]1	inconclusive: 25.1 µM [inhibitor, single point]	
O=c1[nH]c(=O)n([C@H]2C[C@H](O)[C@@H](CO)O2)cc1/C=C/Br	inconclusive: 3.16 µM [inhibitor, single point]	
COc1cccc(N2CCN(C(=O)C3CCN(S(=O)(=O)c4c(C)noc4C)CC3)CC2)c1	inconclusive: 39.8 µM [activator, single point]	
COc1cccc(-c2nc(CS(=O)(=O)CC(=O)Nc3c(C)cc(C)cc3C)c(C)o2)c1		inactive: -20.7%
COc1ccc(S(=O)(=O)N(CCCN2CCCC2=O)Cc2cc3c(C)ccc(C)c3[nH]c2=O)cc1	inconclusive: 31.6 µM [activator, partial curve]	
CC1CCc2c(sc(NC(=O)CSc3ncnc4c3cnn4-c3ccccc3Cl)c2C#N)C1 (stereo unspecified)	active: 10 µM	

SMILES	Potency	max response, negative = inhibition
O=C(Nc1ccc2nc(-c3cccs3)[nH]c2c1)c1cccs1		inactive: 17.9%
COc1ccc(S(=O)(=O)Nc2ccccc2OC)cc1NC(=O)c1cc2ccccc2oc1=O	inconclusive: 39.8 µM [inhibitor, single point]	
O=C(O)c1[nH]c2ccc(Cl)cc2c1CC(=O)N1CCN(c2ccccc2)CC1	inconclusive: 39.8 µM [activator, single point]	
CCCC/C=C/C(NC(=O)OCc1ccccc1Cl)c1ccccc1 (stereo unspecified)		inactive: -0.172%
C[C@@H]1CC2(OC3C[C@@]4(C)C5=CC[C@H]6C(C)(C)C(O[C@@H]7OC[C@@H](O)[C@H](O)[C@H]7O)CC[C@@]67C[C@@]57CC[C@]4(C)C31)OC(O)C1(C)OC21 (stereo partly specified)	inconclusive: 12.6 µM [activator, full curve]	
COc1ccc(Cl)cc1N1C(=O)/C(=C\c2sccc2C)N=C1SCC(=O)NC1CC1	inconclusive: 39.8 µM [inhibitor, single point]	
Cc1cccc(NC(=O)CS(=O)(=O)c2nc(-c3ccccc3)cn2-c2cccc(Cl)c2)c1C	active: 10 µM	
Nc1cc(=O)nc(SCC(=O)N(C2CCCCC2)C2CCCCC2)n1-c1ccccc1	inconclusive: 39.8 µM [activator, single point]	
CN1CCN(c2ncc3nc(-c4cc(F)cc(F)c4)c(=O)n(C4CC4)c3n2)CC1	inconclusive: 15.8 µM [activator, partial curve]	
CCCCC(=Nc1ccc(N)cc1)C1=C(O)C(C(=O)OC)C(C)(C)CC1=O (stereo unspecified)		inactive: 1.56%
Cc1cccc2c1N(CCOc1ccccc1Cl)C(=O)C2=O	inconclusive: 31.6 µM [activator, single point]	
O=C(NCCN1CCN(c2cccc(Cl)c2)CC1)C1COc2ccccc2C1 (stereo unspecified)		inactive: -0.743%
COc1ccc(-c2csc(/C(C#N)=C\c3cccc([N+](=O)[O-])c3)n2)cc1	inconclusive: 39.8 µM [inhibitor, single point]	
CCOc1ccc(CCNC(=O)c2cn(CC)c3ccc(S(=O)(=O)N4CCCCCC4)cc3c2=O)cc1OCC	inconclusive: 7.94 µM [activator, full curve]	
Cc1cc(=O)oc2c(CN3CCC(C)CC3)c(O)c(Cl)cc12	inconclusive: 31.6 µM [inhibitor, single point]	
Cc1ccc(NC(=O)CSC2=Nc3ccccc3C3CC=NN23)c(C)c1 (stereo unspecified)	inconclusive: 25.1 µM [inhibitor, partial curve, poor fit]	
CC(NC(=O)c1ccccc1)(C(=O)O)C(=O)O		inactive: 8.35%
Cc1nc2ccccc2nc1OCC(=O)Nc1cc(C(F)(F)F)ccc1N1CCOCC1	inconclusive: 31.6 µM [activator, single point]	
CCOC(=O)c1c(C)[nH]c(C)c1S(=O)(=O)N1CCC(C(=O)Nc2ccc(C)cn2)CC1		inactive: -9.98%
CCOC(=O)C1CCN(c2cc(C)nc3cc(-c4cccc(F)c4)nn23)CC1	inconclusive: 39.8 µM [activator, single point]	

Reference: PubChem BioAssay AID1476 (National Center for Advancing Translational Sciences (NCATS), 2009)
